The supplement of paper PMC11417369
± gives the standard deviation of the averaged measurements. This is one part of the list.

Test system: PfAP2-G AP2 domain (GST-tagged)
Test: gcPBM binding intensity (ln(normalized median fluorescence intensity)); higher = stronger DNA binding
Method in brief: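 The binding buffer was 1× PBS containing 1% milk, 0.2 mg/ml BSA, 0.5% salmon testes DNA and 0.03% Triton X-100. In it, GST-tagged P. falciparum DNA-binding domains expressed in E. coli were applied for 1 h to an Agilent 4 × 180k array of primer-extended double-stranded 36-bp intergenic genomic probes plus negative controls. Binding intensity, read with Alexa488 anti-GST antibody and a 488 nm scan, is the highest Masliner-normalised natural-log median intensity across replicate spots of either probe orientation.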

Sequence	gcPBM binding intensity (ln)
TATATTAAGTATAAGACACACATATAGTAATAGAAA [CACACA_site5176]	10.2 ± 0.33
TTATAAAAAAAAATAACACACAGACATAAGAATAAA [CACACA_site9383]	10.11 ± 0.078
ATATAATTATATAAATGTACTCATTCGTTATTTTGC [XGTACX_site6132]	11.3 ± 0.83
TATCTTATGTCTGAAAGTACAAATTTTTTTCTACTT [XGTACX_site2208]	10.8 ± 0.56
ATATATATATAATAAAGTACAAATTCTAAATGATAT [XGTACX_site570]	11 ± 0.61
ATTATCTATCGTTTTTGTACTTACACCTTAATACAA [XGTACX_site7337]	11.1 ± 0.65
CTTTTTTTTTTTTTTGCGCACTGTTTAAAGGGAAAT [GTGCAC_site9815]	10.4 ± 0.52
ACTACGAATGGTAGAGTGCAGTCTGGAGAAAAGTAC [GTGCAC_site9681]	10.7 ± 0.47
TTTTTTTTTTTTTTTTATTTATATATATATATATAT [CACACA_negctrl_site582]	9.81 ± 0.61
AAAAAAAATGAAAGGTGTACACATACAAACATAGAA [XGTACX_site3517]	11.7 ± 0.88
AAATAATATATTCTATATAATAAATTATAAATATAA [GTGCAC_negctrl_site558]	9.31 ± 0.34
ATATATATATATATATATATATATATATATTATATA [XGTACX_negctrl_site48]	9.76 ± 0.64
ATATGACTGTTCATTTGTACGTATAATTATATACGT [XGTACX_site3372]	11.5 ± 0.9
ATACAACTAATAAGTAGTACAATATACATATATTAT [XGTACX_site7086]	11.5 ± 0.83
AAATATTTTTAGAGTGCATGTAATAAAAATATAATG [TGCATGCA_site19]	10.2 ± 0.13
AAATGAGATATAAAATGTACATATTGTAAGTAAACA [XGTACX_site1237]	11.1 ± 0.62
TTAATTATATCAGGACGTACTAATATAAATATATAT [XGTACX_site8909]	11.1 ± 0.79
GGGATATATTATTATACACACATATATAAAAGCTTT [CACACA_site2445]	9.89 ± 0.071
GTGCAAAATATTTTTACACACAAATTTTTACAACAG [CACACA_site3357]	10.07 ± 0.078
AAAAATAAATAAGACACACACAAAAAAAAAAAAAAA [CACACA_site1432]	9.91 ± 0.52
AATGTAACAACTTTTTGTACTTAAGAAATAATAAAT [XGTACX_site3310]	10.9 ± 0.58
TAAAAAATTATATTCACACACATACCCATATATATA [CACACA_site4458]	10 ± 0.23

Sequence	gcPBM binding intensity (ln)
TAAAATTTATAAACTACACACATATATATAGTAATA [CACACA_site3728]	10.06 ± 0.078
CGTTGGTATTAAAAGGTGCAATGAAATAATATATTA	10.3 ± 0.37
AAGATCGCATGAAATGAACACACATAAAAAAAATAT [CACACA_site9353]	10.1 ± 0.11
TTTTTCAGATCCTATATAGTATCATATAAATTCCAT [CACACA_negctrl_site56]	9.96 ± 0.15
TTAAGAAAAAAAAAAAGTACACACATATAATATATA [XGTACX_site6268]	11.6 ± 1
TAATTTAGATATATAAAGAATTAAAGTTAACATTCT [CACACA_negctrl_site726]	9.46 ± 0.21
TATCATATATGAAGGTGTACGATTTATTATATAAAT [XGTACX_site7010]	11.4 ± 0.95
ATTTTTGAACGGTACAGTACAGAATTTAATTAACCC [XGTACX_site47]	11.2 ± 0.81
TTATTTAAAATTTTTATGCGTATATATATAGGAACA [CACACA_negctrl_site388]	10.3 ± 0.4
TTAGTTTATTGGTACTGTACTTTTTTTTTCTCCATT [XGTACX_site8618]	11.9 ± 0.91
TGTCATCATCTTAAATGTACAAAAAGGAAATATAAA [XGTACX_site1529]	10.8 ± 0.36
TTTTTATTTACACTTTTTATTTATATATTATGTACG [CACACA_negctrl_site158]	10.24 ± 0.028
TTTATATATTTCATAATACACACGAAAAAAAAAAAA [CACACA_site2970]	10.1 ± 0.36
ATATAATCAGCTTCTCTTTTATGCTAAAAAAAAAAA [CACACA_negctrl_site1310]	9.79 ± 0.35
ATAAATAATATAAATACACACTAAAAAAAATATATA [CACACA_site4456]	9.89 ± 0.099
CACAAAATAAATTAAACACACAACATCATAGATGTA [CACACA_site4619]	9.79 ± 0.27
AATTTTTATTTGTACACACATACATATATATTATAT [CACACA_site993]	11.4 ± 0.83
ATACGAAGTACGTACACACACTTATATGTTACTAAA [CACACA_site7812]	11.7 ± 1
TATATATGCATTAAATGATGTTCCTGTTTTTTAAAA [CACACA_negctrl_site1378]	10.01 ± 0.021
AATAAATAAATATATACACACATATATGTCTACATA [CACACA_site3158]	9.89 ± 0.014
TTTATATCATTTCTTAAAAAAAAGGAGGTAATAGAC [TGCATGCA_negctrl_site555]	10.4 ± 0.42
TTTTTATTAAGACATGCATGGAAACGCACTATTTTA [TGCATGCA_site999]	10.2 ± 0.32

Sequence	gcPBM binding intensity (ln)
TTCGATGAATATACAAGTACATATCCTTACGAACTG [XGTACX_site1650]	11.1 ± 0.88
TTGCATTACGAACATACACACAGAATAACTGAAAAC [CACACA_site3025]	10.2 ± 0.11
TATGTTGATGATATTACACACCCAATGAGAAAAGGA [CACACA_site7060]	10.3 ± 0.2
CAACCATTTGTAGGTAAACACACATTATTATTAATA [CACACA_site8842]	10.1 ± 0.11
GTGTGATATAATTTTTTTAGAGCTTTATAATATTAT [CACACA_negctrl_site233]	10 ± 0.2
TCAATTAATTATTTTTGTACACAAGAATTACTGAAT [XGTACX_site6401]	11.2 ± 0.83
AAGTTACAGAATATCACACATAAATTATCTGTATAT [CACACA_site5116]	9.69 ± 0.2
GTTAAGCAATATATATGTACTTATGGAATAGAAAAA [XGTACX_site3693]	11.2 ± 0.81
ATACACACAGCCTAAACATGCATATAGAAAAAAGAA [TGCATGCA_site1028]	10.2 ± 0.32
TTTGTCAAATAATATTGTACTAAAAAATTTTGCCTT [XGTACX_site7485]	11.1 ± 0.64
TATTTGTAATATAACACACACAAAAAAAGACTCGGA [CACACA_site1681]	10.3 ± 0.31
TATACATATACATATACACACACACCCATAAATAAA [CACACA_site8372]	10.4 ± 0.28
TTAACACATGCTTGGTCACACACGTATGCATATTTA [CACACA_site2127]	10.7 ± 0.39
TTTATTTACTATTAAAGTACTAAATCATATAATTAT [XGTACX_site2580]	10.8 ± 0.54
GAAATAAGGGTTATTTCACACATTGCATGTATTTTC [CACACA_site5752]	9.98 ± 0.099
ATATATATTAATTTTGTGCACAAATGGAAATGTTTG [GTGCAC_site9971]	10.5 ± 0.24
AATACATCATTAAAATGTACATATATATATACATTA [XGTACX_site132]	10.9 ± 0.67
ATTATAATAATGTGATGTACATTAATTGTCTTCCTA [XGTACX_site5404]	11 ± 0.48
TTTTGGCTTCTAATATTATACAAAATGGTAAGGAAA [TGCATGCA_negctrl_site169]	10.5 ± 0.91
ATGCAATAATAATATTGTACGCATATATTTTTTACT [XGTACX_site3384]	11.6 ± 1.3
AGAATACAAAATTGCACACATATTGTGAAAATGTTA [CACACA_site4005]	9.98 ± 0.057
TTATTTATTTATTGGGTGCACTTGATTTAAATATGC	10.5 ± 0.45

Sequence	gcPBM binding intensity (ln)
AAAAAAAAAAAAAAAACACACACATATATATAATAT [CACACA_site9038]	10.2 ± 0.3
TTTTTTTTTTTTTTATGTACTAAAAAATGAAAAATA [XGTACX_site6812]	10.8 ± 0.41
AAATACTTAACATTGGTGCATATTTGTAAAATTATT [GTGCAC_site9515]	10.2 ± 0.25
GATTATTTTATAAGTACACACATTTATCTATAATAA [CACACA_site7256]	11.5 ± 0.98
AATACATGCTTATTTTAACACACAAATGGTAGTAAT [CACACA_site8154]	10.02 ± 0.078
CTTATATTTAGACACACACACAATAAAATGAAAAAA [CACACA_site1031]	10.3 ± 0.34
AACCATGTTAACAACGCATGTATATCTATGGGTTTA [TGCATGCA_site419]	9.74 ± 0.085
GATTAATACACATTCTTCCGACATAATAAGAAAAAG [GTGCAC_negctrl_site7]	10.3 ± 0.26
CACCCACACCAACACACACACATATATAATATATAT [CACACA_site595]	10.3 ± 0.33
CCATAATATTATAGACGTACGAATATATATAAAAGA [XGTACX_site7295]	11.1 ± 0.65
TTATAAAATATTTTTTGTACACATAATAGTAAGACT [XGTACX_site933]	11.5 ± 0.91
AGCTAATATATCTTATATTCATATAAAAAAATATAT [CACACA_negctrl_site1786]	9.69 ± 0.12
TGACTTTTTTTATGTTGTACTTATTATAAAAAAAAT [XGTACX_site7736]	11.3 ± 0.95
TTTTTTAAATGTCATTGTACATAATTCAATATATAA [XGTACX_site5]	10.8 ± 0.71
TATATATATATTATATGTACACATTTGTGAATTATT [XGTACX_site5848]	11.5 ± 0.85
TGTACAAATTATACTTCGAACGAAGGGCATACATAT [XGTACX_negctrl_site37]	10.7 ± 0.33
TATTTGTGTATTTTTACACACATTAATATATTTATA [CACACA_site7562]	9.9 ± 0.2
TATATATATAAACACACACACACACCCAAGCGTAGC [CACACA_site4210]	10.3 ± 0.23
AACAACTATTACTGCACACATTCTTACACTATATAA [CACACA_site654]	10.4 ± 0.24
TATAGATAACAAAAGTGTACATGTTGTATACACATG [XGTACX_site3471]	11.3 ± 0.98
TATTCCTATATAAAGACACACATATGTAACTACGAT [CACACA_site4139]	10.1 ± 0.21
AAAAATTTAATTATTTGTACATAAAATACATTTCTG [XGTACX_site791]	11 ± 0.38
